Data on 84 molecules can be found in ChEMBL document CHEMBL4888484, “Replenishing the malaria drug discovery pipeline: Screening and hit evaluation of the MMV Hit Generation Library 1 (HGL1) against asexual blood stage Plasmodium falciparum ,using a nano luciferase reporter read-out” (2022).

Hit rate of the full screen: of about 150,000 compounds, about 540 (0.36%) showed an effect of 50% or more. This is one part of the list.

The subject of this assay is Plasmodium falciparum. Briefly: Primary screen in NF54 nanoGlo assay, in single point, at 2uM, 72h; a lower Z score goes with more inhibition. The format is functional, Erythrocyte. Conditions: timepoint 72 hour.
With `CN(C(=O)c1ccco1)[C@@H](Cc1ccccc1Cl)C1CCN(Cc2ccccn2)CC1`, the “% Inhibition” value is listed as -17% and the Z score is 2.18.
For `O=C(c1ccc(F)cc1Cl)N1CC(N2C(=O)CCC2=O)C1` the same measures were 2% and -0.25.
For `COCC(=O)Nc1cc(NC(=O)CCc2scnc2C)ccc1OC`, the “% Inhibition” value is -12% and the Z score was 2.38.
The matching figures for `Cc1ccc(C)c(NC(=O)NCc2ccoc2)c1`: -11% and 1.08.
In the case of `OCCc1cnn(Cc2csc(C3CCCCC3)n2)c1`, the “% Inhibition” value is -8% and the Z score was 1.14.
For `COc1cccc(-c2cn3c(n2)N(C(=O)Cn2ccnc2C)CCC3)c1` the same measures were -7% and 1.19.
Consider `CCC1(O)CN(C(=O)[C@]2(C)CCCNC2=O)C1`, for which the “% Inhibition” value amounted to 0% and the Z score amounted to 0.
`C=CCn1cc(CN2CCC[C@@]3(CCN(C(=O)c4cccc(C#N)c4)C3)C2)cn1`: the “% Inhibition” value is listed as 3% and the Z score is -0.31.
On to `COCCn1cnc2cc(NC(=O)C3CCCCC3)cc(C(=O)N(Cc3ccccc3)CC3CC3)c21`, for which the “% Inhibition” value is -10% and the Z score worked out at 1.76.
For `COC[C@@]12CN(C(C)=O)CC[C@@H]1CN(C(=O)Cc1ccsc1)C2` the same measures were -10% and 1.21.
For `COc1cc(CN(C)Cc2ncccc2C)ccc1OC[C@@H](O)CN1CCOCC1` the same measures were -8% and 1.27.
With `CC(C)c1ccc(O)c(C(=O)N2CCC(C(=O)NC3CC3)CC2)c1`, the “% Inhibition” value was determined as 2% and the Z score is listed as -0.19.
The matching figures for `COc1cccc(N2C(=O)c3cc(C)nn3C[C@@]2(C)C(=O)NCc2ccc(Cl)cc2)c1`: -8% and 1.22.
For the molecule `N#Cc1nccnc1O[C@H]1CCCN(C(=O)NCc2ccc(Cl)cc2)C1`, the “% Inhibition” value is -10% and the Z score was found to be 1.77.
Turning to `CN(Cc1ccc2c(c1)OCO2)C(=O)c1cn(C)nc1-c1cnn(C)c1`, the “% Inhibition” value was -13% and the Z score was found to be 2.2.
`CCOc1ccccc1NCC(=O)NC(C1CC1)C1CC1`: the “% Inhibition” value came to 1% and the Z score is recorded as -0.15.
Take `CCc1nc(C)c(C(=O)N2CC[C@@H]3OCc4cccc(c4)Oc4cccc(c4)CC(=O)N(CC)CC(=O)N[C@H]3C2)o1`: the “% Inhibition” value is on record as -3% and the Z score was 0.42.
For `Cc1cc(C)nc(CCNCc2c(C(=O)N(C)C)nc3ccc(Cl)cn23)n1` the same measures were -8% and 1.48.
Consider `CCn1nccc1C(=O)N1CC[C@H](n2c(=O)n(C)c3cccnc32)C1`, for which the “% Inhibition” value was -2% and the Z score is on record as 0.3.
For `CC(C)Cc1n[nH]c(-c2cccc(-c3cn[nH]c3)c2)n1` the same measures were -15% and 2.6.
With `Cc1cc(C)n2nc(C(=O)N3CCC(n4c(=O)[nH]c5ccc(F)cc5c4=O)CC3)nc2n1`, the “% Inhibition” value is -7% and the Z score is recorded as 1.27.
For `COc1cc(NC(C)=O)c(Cl)cc1C(=O)Nc1nnc(CCCc2ccccc2)s1` the same measures were 9% and -1.16.
For `Cc1cc(NC(=O)NC2CCCC2)n(C)n1`, the “% Inhibition” value is recorded as -1% and the Z score is given as 0.12.
For `COCCCN(C)C(=O)Nc1c(C)cc(Br)cc1OC`, the “% Inhibition” value came out at 1% and the Z score is -0.11.
Take `COc1ccc2c(c1)C(=O)N(Cc1ccccc1)C(=O)C2(C)C`: the “% Inhibition” value is reported as -10% and the Z score came out at 1.06.
Regarding `Cc1cc(N2CCN(C(=O)Nc3cccc4c3CCC4)CC2)nc(N)n1`, the “% Inhibition” value is -3% and the Z score came out at 0.38.
Regarding `CCc1nnc(NC(=O)COc2ccc3c(c2)OCO3)s1`, the “% Inhibition” value is recorded as -11% and the Z score was 1.99.
For `CC1CC(C)CN(C(=O)NCCS(=O)(=O)C(C)(C)C)C1` (stereo not drawn), the “% Inhibition” value is on record as -6% and the Z score was determined as 0.9.
On to `O=C(NCc1ccc2nsnc2c1)N1CCC(F)(F)CC1`, for which the “% Inhibition” value is recorded as -12% and the Z score came out at 2.24.
With `Cc1ncc(CO)c(CN2CC[C@](C)(O)[C@H](CC(C)C)C2)c1O`, the “% Inhibition” value stood at 1% and the Z score is listed as -0.13.
For the molecule `COc1cccc2c1CCc1c(C(=O)NCCc3ccncc3)n[nH]c1-2`, the “% Inhibition” value is listed as 4% and the Z score was -0.55.
For `c1ccc(OCCn2nnnc2N2CCCC2)cc1` the same measures were 4% and -0.76.
Regarding `C#CCNC(=O)c1ccc(Br)cc1C`, the “% Inhibition” value is listed as 5% and the Z score is given as -0.69.
Regarding `COc1cc2ccccc2cc1C(=O)N1CCc2ccccc2C1`, the “% Inhibition” value is on record as -7% and the Z score is 1.03.
Regarding `CC(C)N1CC[C@H](CN(C)C(=O)c2csnc2N)C1`, the “% Inhibition” value was -14% and the Z score amounted to 1.94.
With `COc1cccc(-n2ccc3c(nnc4ncnn43)c2=O)c1`, the “% Inhibition” value is -8% and the Z score came to 1.18.
Turning to `N[C@H]1CCN(C(=O)c2csc3ccccc23)C1`, the “% Inhibition” value was -2% and the Z score was 0.45.
Turning to `CN(C)C(=O)CN1CCC[C@H](CNC(=O)c2ccoc2)C1`, the “% Inhibition” value came to 5% and the Z score is recorded as -0.66.
As for `CN(C)c1nccnc1NCCCc1nnc2ccccn12`, the “% Inhibition” value is -6% and the Z score is on record as 1.2.
For `C[C@@H](Cc1nc(CC(N)=O)nn1C(C)(C)C)N1CCOCC1` the same measures were -6% and 1.16.
For `O=C(CCN1C(=O)CCC1=O)N1CCCN(c2nc3ccccc3[nH]2)CC1`, the “% Inhibition” value is -2% and the Z score is given as 0.24.
`Cc1c(C(=O)N(C)C2CCN(C)CC2)cnn1-c1nccc(-c2cc3ccccc3o2)n1`: the “% Inhibition” value is -4% and the Z score is 0.55.
As to `O=C(CC1CC(F)(F)C1)Nc1ccccn1`, the “% Inhibition” value is given as 4% and the Z score is reported as -0.57.
In the case of `Cc1ccc(N(C)S(=O)(=O)c2ccccc2-c2nc(-c3ccccc3)no2)cc1C`, the “% Inhibition” value is -13% and the Z score was found to be 1.48.
As to `CC(C)NC(=O)N1CCN(c2nc(C3CCCCC3)nc3c2cnn3-c2ccccc2Cl)CC1`, the “% Inhibition” value is recorded as -4% and the Z score was 0.39.
As to `COc1ccc(NC(=O)N2CCC3(C=Cc4ccccc43)CC2)cn1`, the “% Inhibition” value is listed as -13% and the Z score is reported as 2.58.
For `Cc1cccc([C@@H](NC(=O)CC2OCCCO2)C(F)(F)F)c1` the same measures were 3% and -0.38.
As to `COc1ccc(CN2CCN(C3CCC3)C[C@@H]2CCO)c(F)c1`, the “% Inhibition” value is given as -14% and the Z score is 1.26.
The matching figures for `CCCc1csc(NC(=O)N2CCOC3(CCC3)C2)n1`: 1% and -0.16.
In the case of `CN(C)C(=O)N(CCNS(=O)(=O)c1ccccc1)C1CCOCC1`, the “% Inhibition” value was -4% and the Z score was 0.71.
For `O=C(NCc1ccc(Cl)s1)N[C@H]1CC[C@@H](CO)C1`, the “% Inhibition” value was 1% and the Z score is recorded as -0.26.
As for `N#Cc1cnc(NC2CCCCC2)nc1N`, the “% Inhibition” value is reported as -13% and the Z score came to 1.54.
On to `Cc1ccc(C)c2sc(NC(=O)C(CC(C)C)N3C(=O)C4CC=CCC4C3=O)nc12` (stereo not drawn), for which the “% Inhibition” value is given as 18% and the Z score is reported as -2.27.
The matching figures for `COC(=O)COc1cc(-c2ccc(Cl)cc2)nc2ccc(NC(=O)Cc3ccccc3)cc12`: -9% and 1.57.
Turning to `COc1ccc2c(n1)N(C(=O)OC(C)(C)C)[C@H](C(=O)O)C2`, the “% Inhibition” value is -4% and the Z score was 0.67.
For the molecule `Cc1ncsc1C(=O)N1CCN(C(=O)C2CCC2)[C@@H]2CS(=O)(=O)C[C@@H]21`, the “% Inhibition” value is recorded as -18% and the Z score stood at 1.98.
Consider `CCc1c(C(=O)N[C@H]2Cc3cccnc3NC2=O)ccn1C`, for which the “% Inhibition” value is given as 10% and the Z score is -1.13.
With `O=C(CCn1nnc2ccccc21)NC[C@@H](c1ccc(F)cc1)N1CCCC1`, the “% Inhibition” value was -1% and the Z score came out at 0.17.
For the molecule `Cc1n[nH]c(C2CC2)c1C(=O)NCc1csc(N)n1`, the “% Inhibition” value is -13% and the Z score is recorded as 2.35.
The matching figures for `Cc1ccc(S(=O)(=O)c2c(C)cc(-c3ccccc3)nc2N2CCOCC2)cc1`: 39% and -4.97.
Take `COc1ccc2oc(-c3cccc(NC(=O)c4cccs4)c3)nc2c1`: the “% Inhibition” value is listed as -8% and the Z score stood at 0.94.
For the molecule `O=C(c1cnoc1-c1ccccc1)N1C[C@@H]2CC[C@H]1CN(C1CCOCC1)C2`, the “% Inhibition” value was -8% and the Z score is on record as 1.41.
The matching figures for `COc1ccc(CC(=O)Nc2ccc(OC)c(N3CCCN(Cc4ccc(OC)cc4)C3=O)c2)cc1`: 11% and -2.14.
For `CC1(C)C[C@@H](NC(=O)c2ocnc2-c2ccccc2)CCS1(=O)=O` the same measures were -1% and 0.17.
Regarding `Cc1nc(CN(C)Cc2cn3ccccc3c2C#N)cs1`, the “% Inhibition” value was -13% and the Z score was 1.35.
`CC1(C)CC(N2C(=O)CCC2CCNCCOc2ccc(F)cc2)CCO1` (stereo not drawn): the “% Inhibition” value is given as -7% and the Z score stood at 0.94.
Turning to `COCCn1c(N)c(C(=O)CN(C)CCOc2ccc(Br)cc2)c(=O)[nH]c1=O`, the “% Inhibition” value is reported as -12% and the Z score was 1.69.
In the case of `CCc1cc(-c2cccc(C(=O)NCc3n[nH]c(N)n3)c2)nc(N(C)C)n1`, the “% Inhibition” value is -1% and the Z score came to 0.08.
On to `O=C(c1ccc(OC2CCOCC2)cc1)N1CC[C@H](n2cccn2)C1`, for which the “% Inhibition” value is -14% and the Z score is 1.58.
Consider `CCOc1ccc(NC(=O)c2cccn2-c2cccnc2)cc1`, for which the “% Inhibition” value is reported as -17% and the Z score came out at 1.72.
The matching figures for `COC(=O)[C@@H](OC(=O)c1cc(C)no1)C1CC1`: -7% and 0.63.
As to `CC(C)C[C@](C)(NCCOc1ccccc1F)C(N)=O`, the “% Inhibition” value is -4% and the Z score worked out at 0.53.
For the molecule `CN(CC(=O)Nc1ccccc1Cl)CC(=O)Nc1ccccc1Cc1ccccc1`, the “% Inhibition” value was 5% and the Z score is given as -0.87.
As to `c1cc(-c2nc(-c3cnccn3)no2)cc(-n2cncn2)c1`, the “% Inhibition” value is recorded as -16% and the Z score was 1.78.
The matching figures for `CC(C)c1csc([C@@H]2CC(=O)Nc3cc(N4CCCC4=O)ccc32)n1`: -13% and 1.82.
`CC(C)(C)OC(=O)NC[C@H]1CCCN1CC(F)F`: the “% Inhibition” value was -5% and the Z score was determined as 0.95.
Consider `COc1cc2c(cc1CNC(=O)Nc1cnn(C)c1C)CCC2`, for which the “% Inhibition” value is -5% and the Z score amounted to 0.69.
As for `CCOC(=O)c1c(C)c(CCC(=O)N2CCN(c3ccccn3)CC2)c(C)n1C`, the “% Inhibition” value was -7% and the Z score was 1.27.
For `CCc1nnc(NCC[C@@H]2C(=O)Nc3ccccc32)nc1CC` the same measures were -18% and 1.81.
Consider `O=C(Nc1ccc(CN2CCOCC2)cc1)C(c1ccccc1)c1ccccc1`, for which the “% Inhibition” value is on record as 0% and the Z score was 0.07.
On to `CCCc1[nH]nc(-c2ccc(C(F)(F)F)cc2)c1NC(=O)c1ccccc1OC`, for which the “% Inhibition” value was found to be 0% and the Z score is -0.01.
Regarding `O=C(c1cc(C2CC2)nc2ccccc12)N1CCOC[C@@H](O)C1`, the “% Inhibition” value was 2% and the Z score was -0.23.
In the case of `C[C@@H](c1ccccn1)N1CCOC(C)(C)C1`, the “% Inhibition” value was -9% and the Z score is on record as 1.24.
Turning to `Cc1nc(CNC(=O)c2nc3ccccc3[nH]c2=O)cs1`, the “% Inhibition” value came to 5% and the Z score is given as -0.75.
